Source: the supplement of paper PMC9151546
Where a name gives a salt, the structure may show the parent alone. Single values are uncertain, as repeats are few or missing.

Columns and labels:
CHO-K1 [1] = assay: relative survival (nuclei to bead ratio vs DMSO control) (% of vehicle control); higher = more surviving cells
Description: (§1)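 Flow-cytometric in vitro micronucleus assay (Litron MicroFlow) in CHO-K1 cells in 96-well plates, 19 concentrations (4.5-200 µM, n=1 per concentration). Without S9, cells were exposed for 24 h and sampled at 48 h. With Aroclor 1254-induced rat liver S9, cells were exposed for 3-4 h and sampled at 27-28 h. Read-outs are %MN and %hypodiploid nuclei relative to nucleated events, and relative survival as the nuclei-to-bead ratio versus the 1% DMSO vehicle control (x100).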

CHO-K1 [2] = assay: micronucleus frequency (% of nucleated events); higher = more micronuclei (genotoxic)
CHO-K1 [3] = assay: hypodiploid nuclei frequency (% of nucleated events); higher = more hypodiploid events (aneugenic)
Description: as §1
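For hypodiploid nuclei frequency (% of nucleated events) in this document: hypodiploid nuclei gated on a flow cytometer with 488 nm excitation after SYTOX Green staining, cultures at 37 °C, positive controls vinblastine without S9 and cyclophosphamide with S9.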
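For micronucleus frequency (% of nucleated events) in this document: cells lysed with nuclei stained by SYTOX Green, then micronucleus-gated events counted against nucleated events by flow cytometry with 488 nm excitation.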
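For relative survival (nuclei to bead ratio vs DMSO control) in this document: Lysed-cell nuclei stained with SYTOX Green and counted against counting beads by flow cytometry at 488 nm excitation, with vinblastine (no S9) and cyclophosphamide (plus S9) as positive controls.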

CC(C)NCC(O)c1ccc(O)c(O)c1 (stereo not given) [Isoproterenol hydrochloride]
Details	hypodiploid nuclei frequency, CHO-K1 [3] [%]	micronucleus frequency, CHO-K1 [2] [%]	relative survival, CHO-K1 [1]
concentration: 4.5 (µM), S9 metabolic activation: with S9, exposure time: 3-4 hours	0.3	1.48	90.6
concentration: 4.5 (µM), S9 metabolic activation: without S9, exposure time: 24 hours	0.52	1.3	129
concentration: 5.63 (µM), S9 metabolic activation: with S9, exposure time: 3-4 hours	0.28	1.56	102
concentration: 5.63 (µM), S9 metabolic activation: without S9, exposure time: 24 hours	0.32	0.88	99.6
concentration: 7.04 (µM), S9 metabolic activation: with S9, exposure time: 3-4 hours	0.2	1.26	85.8
concentration: 7.04 (µM), S9 metabolic activation: without S9, exposure time: 24 hours	0.56	1.24	119
concentration: 8.8 (µM), S9 metabolic activation: with S9, exposure time: 3-4 hours	0.18	0.84	87.8
concentration: 8.8 (µM), S9 metabolic activation: without S9, exposure time: 24 hours	0.62	1.52	108
concentration: 11 (µM), S9 metabolic activation: with S9, exposure time: 3-4 hours	0.18	1.38	83
concentration: 11 (µM), S9 metabolic activation: without S9, exposure time: 24 hours	0.62	1.28	157
concentration: 13.7 (µM), S9 metabolic activation: with S9, exposure time: 3-4 hours	0.26	1.16	93.8
concentration: 13.7 (µM), S9 metabolic activation: without S9, exposure time: 24 hours	2.36	1.96	122
concentration: 17.2 (µM), S9 metabolic activation: with S9, exposure time: 3-4 hours	0.22	1.34	108
concentration: 17.2 (µM), S9 metabolic activation: without S9, exposure time: 24 hours	0.52	1.66	110
concentration: 21.5 (µM), S9 metabolic activation: with S9, exposure time: 3-4 hours	0.2	1.24	106
concentration: 21.5 (µM), S9 metabolic activation: without S9, exposure time: 24 hours	1.06	1.98	116
concentration: 26.8 (µM), S9 metabolic activation: with S9, exposure time: 3-4 hours	0.2	1.08	66.5
concentration: 26.8 (µM), S9 metabolic activation: without S9, exposure time: 24 hours	1.04	1.66	107
concentration: 33.6 (µM), S9 metabolic activation: with S9, exposure time: 3-4 hours	0.24	0.88	109
concentration: 33.6 (µM), S9 metabolic activation: without S9, exposure time: 24 hours	0.74	1.88	130
concentration: 41.9 (µM), S9 metabolic activation: with S9, exposure time: 3-4 hours	0.2	1.14	66.5
concentration: 41.9 (µM), S9 metabolic activation: without S9, exposure time: 24 hours	0.78	1.2	130
concentration: 52.4 (µM), S9 metabolic activation: with S9, exposure time: 3-4 hours	0.24	1.24	95
concentration: 52.4 (µM), S9 metabolic activation: without S9, exposure time: 24 hours	0.7	1.3	129
concentration: 65.5 (µM), S9 metabolic activation: with S9, exposure time: 3-4 hours	0.2	1.2	70.5
concentration: 65.5 (µM), S9 metabolic activation: without S9, exposure time: 24 hours	0.8	2.14	119
concentration: 81.9 (µM), S9 metabolic activation: with S9, exposure time: 3-4 hours	0.24	1.3	90.9
concentration: 81.9 (µM), S9 metabolic activation: without S9, exposure time: 24 hours	1.06	1.66	116
concentration: 102 (µM), S9 metabolic activation: with S9, exposure time: 3-4 hours	0.32	1.72	77.3
concentration: 102 (µM), S9 metabolic activation: without S9, exposure time: 24 hours	1.3	2.02	136
concentration: 128 (µM), S9 metabolic activation: with S9, exposure time: 3-4 hours	0.24	1.4	95
concentration: 128 (µM), S9 metabolic activation: without S9, exposure time: 24 hours	1.46	2.46	83.9
concentration: 160 (µM), S9 metabolic activation: with S9, exposure time: 3-4 hours	0.22	2.14	94.7
concentration: 160 (µM), S9 metabolic activation: without S9, exposure time: 24 hours	2.38	1.98	78.2
concentration: 200 (µM), S9 metabolic activation: with S9, exposure time: 3-4 hours	0.42	2.46	86
concentration: 200 (µM), S9 metabolic activation: without S9, exposure time: 24 hours	2.5	3.36	62.4

O=C1C2(Cl)C3(Cl)C4(Cl)C(Cl)(Cl)C5(Cl)C3(Cl)C1(Cl)C5(Cl)C24Cl (stereo not given) [Kepone]
Details	hypodiploid nuclei frequency, CHO-K1 [3] [%]	micronucleus frequency, CHO-K1 [2] [%]	relative survival, CHO-K1 [1]
concentration: 4.5 (µM), S9 metabolic activation: with S9, exposure time: 3-4 hours	0.26	1.7	102
concentration: 4.5 (µM), S9 metabolic activation: without S9, exposure time: 24 hours	0.44	2.12	99.6
concentration: 5.63 (µM), S9 metabolic activation: with S9, exposure time: 3-4 hours	0.2	1.42	103
concentration: 5.63 (µM), S9 metabolic activation: without S9, exposure time: 24 hours	0.38	1.84	117
concentration: 7.04 (µM), S9 metabolic activation: with S9, exposure time: 3-4 hours	0.34	1.7	103
concentration: 7.04 (µM), S9 metabolic activation: without S9, exposure time: 24 hours	0.52	2.16	105
concentration: 8.8 (µM), S9 metabolic activation: with S9, exposure time: 3-4 hours	0.14	1.44	108
concentration: 8.8 (µM), S9 metabolic activation: without S9, exposure time: 24 hours	0.48	1.82	122
concentration: 11 (µM), S9 metabolic activation: with S9, exposure time: 3-4 hours	0.2	1.64	109
concentration: 11 (µM), S9 metabolic activation: without S9, exposure time: 24 hours	0.64	1.18	110
concentration: 13.7 (µM), S9 metabolic activation: with S9, exposure time: 3-4 hours	0.2	1.76	97.9
concentration: 13.7 (µM), S9 metabolic activation: without S9, exposure time: 24 hours	0.24	1.72	108
concentration: 17.2 (µM), S9 metabolic activation: with S9, exposure time: 3-4 hours	0.34	2.08	105
concentration: 17.2 (µM), S9 metabolic activation: without S9, exposure time: 24 hours	0.44	1.62	119
concentration: 21.5 (µM), S9 metabolic activation: with S9, exposure time: 3-4 hours	0.24	1.86	105
concentration: 21.5 (µM), S9 metabolic activation: without S9, exposure time: 24 hours	0.64	1.4	105
concentration: 26.8 (µM), S9 metabolic activation: with S9, exposure time: 3-4 hours	0.16	1.48	132
concentration: 26.8 (µM), S9 metabolic activation: without S9, exposure time: 24 hours	0.4	2.18	68.8
concentration: 33.6 (µM), S9 metabolic activation: with S9, exposure time: 3-4 hours	0.2	1.58	110
concentration: 33.6 (µM), S9 metabolic activation: without S9, exposure time: 24 hours	0.6	2.28	61.2
concentration: 41.9 (µM), S9 metabolic activation: with S9, exposure time: 3-4 hours	0.18	1.5	108
concentration: 41.9 (µM), S9 metabolic activation: without S9, exposure time: 24 hours	0.52	2.84	60.7
concentration: 52.4 (µM), S9 metabolic activation: with S9, exposure time: 3-4 hours	0.2	1.44	106
concentration: 52.4 (µM), S9 metabolic activation: without S9, exposure time: 24 hours	0.54	3.52	50
concentration: 65.5 (µM), S9 metabolic activation: with S9, exposure time: 3-4 hours	0.42	2.44	86.2
concentration: 65.5 (µM), S9 metabolic activation: without S9, exposure time: 24 hours	2.68	28.6	50.8
concentration: 81.9 (µM), S9 metabolic activation: with S9, exposure time: 3-4 hours	0.34	5.32	40.9
concentration: 81.9 (µM), S9 metabolic activation: without S9, exposure time: 24 hours	–	–	39.5
concentration: 102 (µM), S9 metabolic activation: with S9, exposure time: 3-4 hours	–	–	12.2
concentration: 102 (µM), S9 metabolic activation: without S9, exposure time: 24 hours	–	–	19.3
concentration: 128 (µM), S9 metabolic activation: with S9, exposure time: 3-4 hours	–	–	0.12
concentration: 128 (µM), S9 metabolic activation: without S9, exposure time: 24 hours	–	–	6.96
concentration: 200 (µM), S9 metabolic activation: with S9, exposure time: 3-4 hours	–	–	0.06
